The source of these data is article PMC11900812.

Sequences of proteins named here, by UniProt entry; tags and fusion partners are left off. A change or cut given only in a name is not applied to a line headed by its entry.
UniProt P51617: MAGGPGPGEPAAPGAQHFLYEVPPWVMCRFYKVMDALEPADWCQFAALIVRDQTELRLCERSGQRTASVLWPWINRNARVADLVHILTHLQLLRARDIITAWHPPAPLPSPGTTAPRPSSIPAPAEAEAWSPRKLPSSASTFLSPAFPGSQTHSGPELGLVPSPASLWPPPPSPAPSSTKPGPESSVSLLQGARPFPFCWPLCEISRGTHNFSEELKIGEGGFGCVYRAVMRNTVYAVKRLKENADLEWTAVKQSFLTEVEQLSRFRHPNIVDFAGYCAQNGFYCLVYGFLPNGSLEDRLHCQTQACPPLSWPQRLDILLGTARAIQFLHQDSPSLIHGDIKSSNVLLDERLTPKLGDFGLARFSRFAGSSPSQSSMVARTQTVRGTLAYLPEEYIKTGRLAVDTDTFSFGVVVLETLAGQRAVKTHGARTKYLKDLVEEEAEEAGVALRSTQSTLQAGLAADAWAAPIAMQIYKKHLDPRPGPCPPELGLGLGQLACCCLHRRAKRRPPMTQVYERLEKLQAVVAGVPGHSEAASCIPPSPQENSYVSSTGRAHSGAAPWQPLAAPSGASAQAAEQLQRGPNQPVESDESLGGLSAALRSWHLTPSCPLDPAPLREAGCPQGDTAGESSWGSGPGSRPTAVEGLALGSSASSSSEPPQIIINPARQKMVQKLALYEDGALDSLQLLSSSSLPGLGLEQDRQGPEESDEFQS
UniProt Q92560: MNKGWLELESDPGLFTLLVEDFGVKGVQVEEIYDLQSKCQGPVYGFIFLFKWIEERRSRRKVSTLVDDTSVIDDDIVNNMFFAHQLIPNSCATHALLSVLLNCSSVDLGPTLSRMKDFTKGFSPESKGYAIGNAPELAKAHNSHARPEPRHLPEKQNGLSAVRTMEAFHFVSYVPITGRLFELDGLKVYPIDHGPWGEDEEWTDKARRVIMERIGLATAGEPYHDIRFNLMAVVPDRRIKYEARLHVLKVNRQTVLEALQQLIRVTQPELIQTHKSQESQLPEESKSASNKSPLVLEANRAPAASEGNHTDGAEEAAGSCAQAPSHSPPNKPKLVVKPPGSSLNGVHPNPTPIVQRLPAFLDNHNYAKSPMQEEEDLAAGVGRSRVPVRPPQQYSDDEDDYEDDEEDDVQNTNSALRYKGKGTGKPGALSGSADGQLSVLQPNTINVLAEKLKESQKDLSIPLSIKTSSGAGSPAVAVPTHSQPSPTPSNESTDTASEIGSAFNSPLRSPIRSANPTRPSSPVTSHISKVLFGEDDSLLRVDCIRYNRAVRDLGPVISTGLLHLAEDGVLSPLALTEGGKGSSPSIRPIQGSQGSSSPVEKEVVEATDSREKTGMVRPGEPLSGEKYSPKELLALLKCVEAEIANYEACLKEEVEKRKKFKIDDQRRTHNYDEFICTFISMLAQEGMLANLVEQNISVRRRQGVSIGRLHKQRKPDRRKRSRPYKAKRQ
UniProt Q76L83: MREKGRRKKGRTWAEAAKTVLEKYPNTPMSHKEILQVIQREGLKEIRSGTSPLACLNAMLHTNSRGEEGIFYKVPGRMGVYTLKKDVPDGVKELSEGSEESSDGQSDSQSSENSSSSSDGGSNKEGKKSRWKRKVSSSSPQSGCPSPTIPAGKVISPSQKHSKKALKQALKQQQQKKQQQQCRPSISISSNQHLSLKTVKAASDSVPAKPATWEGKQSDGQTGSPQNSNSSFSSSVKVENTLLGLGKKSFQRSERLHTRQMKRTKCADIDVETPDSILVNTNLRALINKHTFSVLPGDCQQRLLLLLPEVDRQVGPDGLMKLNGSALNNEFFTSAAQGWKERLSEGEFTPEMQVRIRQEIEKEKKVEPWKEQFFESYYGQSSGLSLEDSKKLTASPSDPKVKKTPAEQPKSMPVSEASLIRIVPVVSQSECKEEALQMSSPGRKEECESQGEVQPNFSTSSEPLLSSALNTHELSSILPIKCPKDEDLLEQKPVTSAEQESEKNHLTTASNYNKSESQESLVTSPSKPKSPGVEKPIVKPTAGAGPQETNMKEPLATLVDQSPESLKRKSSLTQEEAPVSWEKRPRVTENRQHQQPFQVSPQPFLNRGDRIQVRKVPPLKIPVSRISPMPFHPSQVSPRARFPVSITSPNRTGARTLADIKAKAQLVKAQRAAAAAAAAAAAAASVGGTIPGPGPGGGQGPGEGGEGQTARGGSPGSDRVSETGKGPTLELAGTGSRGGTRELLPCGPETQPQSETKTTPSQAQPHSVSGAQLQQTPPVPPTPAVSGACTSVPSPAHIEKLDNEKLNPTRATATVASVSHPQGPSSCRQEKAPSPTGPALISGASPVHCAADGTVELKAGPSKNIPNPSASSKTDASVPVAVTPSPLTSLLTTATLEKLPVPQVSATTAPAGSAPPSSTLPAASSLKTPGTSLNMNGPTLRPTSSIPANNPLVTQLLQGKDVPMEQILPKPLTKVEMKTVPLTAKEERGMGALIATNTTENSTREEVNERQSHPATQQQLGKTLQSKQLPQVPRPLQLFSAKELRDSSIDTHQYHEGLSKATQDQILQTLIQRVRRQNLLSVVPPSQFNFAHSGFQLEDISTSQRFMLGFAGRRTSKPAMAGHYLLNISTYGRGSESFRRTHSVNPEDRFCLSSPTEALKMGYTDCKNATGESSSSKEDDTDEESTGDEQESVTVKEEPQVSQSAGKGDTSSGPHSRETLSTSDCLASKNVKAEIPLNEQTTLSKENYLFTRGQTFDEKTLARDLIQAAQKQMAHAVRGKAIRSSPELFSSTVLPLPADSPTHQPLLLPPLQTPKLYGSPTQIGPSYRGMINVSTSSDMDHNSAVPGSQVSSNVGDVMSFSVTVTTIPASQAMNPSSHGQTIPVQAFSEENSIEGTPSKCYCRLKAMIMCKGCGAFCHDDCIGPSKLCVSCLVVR
UniProt Q99836: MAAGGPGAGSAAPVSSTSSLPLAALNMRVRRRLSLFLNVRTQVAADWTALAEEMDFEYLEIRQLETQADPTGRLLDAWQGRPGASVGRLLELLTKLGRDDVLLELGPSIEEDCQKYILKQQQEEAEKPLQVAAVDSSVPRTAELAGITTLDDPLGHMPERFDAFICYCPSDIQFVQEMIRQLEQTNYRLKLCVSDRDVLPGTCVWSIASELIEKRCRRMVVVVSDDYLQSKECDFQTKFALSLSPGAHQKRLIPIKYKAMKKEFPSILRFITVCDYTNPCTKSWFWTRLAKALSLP
UniProt Q9C0F0: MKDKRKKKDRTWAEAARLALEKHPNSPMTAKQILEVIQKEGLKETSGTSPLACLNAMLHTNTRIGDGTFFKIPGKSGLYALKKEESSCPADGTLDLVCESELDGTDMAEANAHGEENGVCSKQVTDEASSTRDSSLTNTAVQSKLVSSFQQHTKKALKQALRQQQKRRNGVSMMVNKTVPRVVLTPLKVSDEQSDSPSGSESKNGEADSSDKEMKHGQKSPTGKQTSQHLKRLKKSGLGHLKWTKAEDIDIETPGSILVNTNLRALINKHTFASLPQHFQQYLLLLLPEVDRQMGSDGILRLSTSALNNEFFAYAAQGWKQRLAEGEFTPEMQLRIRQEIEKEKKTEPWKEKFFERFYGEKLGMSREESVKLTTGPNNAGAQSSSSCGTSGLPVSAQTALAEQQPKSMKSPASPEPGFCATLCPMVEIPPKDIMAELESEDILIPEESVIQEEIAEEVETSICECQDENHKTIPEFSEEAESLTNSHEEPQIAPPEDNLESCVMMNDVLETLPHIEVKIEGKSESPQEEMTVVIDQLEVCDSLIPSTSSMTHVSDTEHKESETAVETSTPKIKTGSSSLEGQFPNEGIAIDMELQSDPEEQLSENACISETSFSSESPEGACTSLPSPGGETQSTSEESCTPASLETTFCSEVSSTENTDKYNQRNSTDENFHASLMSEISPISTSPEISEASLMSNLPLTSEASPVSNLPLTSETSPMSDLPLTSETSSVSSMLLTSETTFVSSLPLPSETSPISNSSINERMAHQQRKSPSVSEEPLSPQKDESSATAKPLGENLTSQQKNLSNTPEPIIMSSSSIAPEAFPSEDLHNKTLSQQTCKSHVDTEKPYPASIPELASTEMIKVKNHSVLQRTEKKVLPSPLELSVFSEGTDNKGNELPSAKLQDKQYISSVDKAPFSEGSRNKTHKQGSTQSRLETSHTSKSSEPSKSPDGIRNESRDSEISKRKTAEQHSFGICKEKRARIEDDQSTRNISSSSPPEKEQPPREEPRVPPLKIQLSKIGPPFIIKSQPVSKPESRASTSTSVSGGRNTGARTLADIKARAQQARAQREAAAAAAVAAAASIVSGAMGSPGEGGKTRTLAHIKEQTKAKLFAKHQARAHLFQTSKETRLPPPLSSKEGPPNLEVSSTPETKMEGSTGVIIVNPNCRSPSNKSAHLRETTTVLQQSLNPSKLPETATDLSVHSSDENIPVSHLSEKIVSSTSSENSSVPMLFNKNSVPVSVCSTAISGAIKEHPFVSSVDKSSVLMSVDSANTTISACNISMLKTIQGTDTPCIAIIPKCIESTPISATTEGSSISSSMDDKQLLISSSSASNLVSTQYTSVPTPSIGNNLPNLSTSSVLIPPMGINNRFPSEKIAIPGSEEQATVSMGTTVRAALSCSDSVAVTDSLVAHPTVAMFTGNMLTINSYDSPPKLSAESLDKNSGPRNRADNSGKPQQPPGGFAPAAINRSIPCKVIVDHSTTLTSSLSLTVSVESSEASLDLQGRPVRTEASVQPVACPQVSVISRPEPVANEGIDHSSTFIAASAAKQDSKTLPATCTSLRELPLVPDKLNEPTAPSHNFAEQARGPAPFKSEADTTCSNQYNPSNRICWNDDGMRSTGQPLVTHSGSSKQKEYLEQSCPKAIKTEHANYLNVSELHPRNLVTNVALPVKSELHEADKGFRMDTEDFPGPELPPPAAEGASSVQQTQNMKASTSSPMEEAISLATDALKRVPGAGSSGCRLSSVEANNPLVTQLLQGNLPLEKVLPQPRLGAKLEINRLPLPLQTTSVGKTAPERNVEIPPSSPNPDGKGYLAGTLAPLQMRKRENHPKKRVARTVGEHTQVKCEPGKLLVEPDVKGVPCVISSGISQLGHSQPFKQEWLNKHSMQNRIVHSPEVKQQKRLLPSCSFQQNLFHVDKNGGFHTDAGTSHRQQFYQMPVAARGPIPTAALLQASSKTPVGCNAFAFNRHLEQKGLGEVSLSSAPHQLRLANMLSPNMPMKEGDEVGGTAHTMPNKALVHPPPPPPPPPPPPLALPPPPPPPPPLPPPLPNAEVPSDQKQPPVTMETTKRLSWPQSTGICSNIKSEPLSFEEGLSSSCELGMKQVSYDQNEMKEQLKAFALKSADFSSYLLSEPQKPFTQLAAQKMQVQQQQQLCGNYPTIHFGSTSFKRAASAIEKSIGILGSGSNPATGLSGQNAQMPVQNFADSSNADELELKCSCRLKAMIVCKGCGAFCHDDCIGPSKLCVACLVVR

The target in test [1] is Flag-IRAK1 (WT) (UniProt P51617). The test is described as follows: co-IP; PaTu8988 cell lysates (IP lysis buffer with PMSF and phosphatase inhibitor), primary antibody and protein A/G agarose beads at 4°C overnight, five washes, Western blot; endogenous proteins or indicated plasmids; treatments in some panels: LPS, λ-phosphatase, BAP1 knock-out and rescue, IRAK4 siRNA or overexpression. Background: In western blotting, separated proteins are transferred to a membrane and probed.

Test [2] has as its target interleukin-1 receptor-associated kinase 1 (IRAK1), endogenous (human (endogenous in PaTu8988, 293T, SW1990)) (UniProt P51617). The test is described as above.
Test [3] shares this target. The test is described as follows: co-IP; SW1990 cells with overexpression of BAP1, co-IP of IRAK1, Western blot.
In test [4] the target is HA tagged BAP1 (human) (UniProt Q92560). The test is described as follows: co-IP; PaTu8988 cell lysates (IP lysis buffer with PMSF and phosphatase inhibitor), primary antibody and protein A/G agarose beads at 4°C overnight, five washes, Western blot; endogenous proteins or indicated plasmids; treatments in some panels: LPS, λ-phosphatase, BAP1 knock-out and rescue, IRAK4 siRNA or overexpression.

Test [5] deals with BRCA1 Associated Protein-1 (BAP1), endogenous (human (endogenous in PaTu8988)) (UniProt Q92560). Description: co-IP; PaTu8988 cells, nuclear-cytoplasmic separation (extraction kit), then co-IP of BAP1 from the extracts.
The target is the same in test [6]. Description: co-IP; PaTu8988 cell lysates (IP lysis buffer with PMSF and phosphatase inhibitor), primary antibody and protein A/G agarose beads at 4°C overnight, five washes, Western blot; endogenous proteins or indicated plasmids; treatments in some panels: LPS, λ-phosphatase, BAP1 knock-out and rescue, IRAK4 siRNA or overexpression.

Results are given in words; binding and its absence hold for the method and conditions named. In cells and extracts the contact can be indirect. Some entries that bind do so weakly or less than the wild type.

With ASXL2 (from UniProt Q76L83 1-1435), the binding result in test [1] is listed as “no binding”.

In the case of “wild-type (WT) BAP1, expressed from a plasmid (from UniProt Q92560 1-729)”, the binding result in test [2] was “binds”.

Consider “BRCA1 Associated Protein-1 (BAP1), endogenous (from UniProt Q92560 1-729)”, for which the binding result in test [1] and in test [2] was “binds” in each case.

“C91A mutated BAP1 (enzymatically inactive) (from UniProt Q92560 1-729)”: the binding entry in test [2] was “binds”.

Take “MyD88, endogenous (from UniProt Q99836 1-296)”: the results for the binding entry in test [3], in test [4] and in test [2] were “binds”, “no binding” and “binds”, respectively.

For the molecule ASXL3 (from UniProt Q9C0F0 1-2248), the binding entry in test [1] was “no binding”.

Regarding “interleukin-1 receptor-associated kinase 1 (IRAK1), endogenous (from UniProt P51617 1-712)”, the binding entry in test [5], in test [6] and in test [4] was “binds” throughout.

B1: IRAK4, endogenous (protein, UniProt Q9NWZ3 1-460)
chain: MNKPITPSTYVRCLNVGLIRKLSDFIDPQEGWKKLAVAIKKPSGDDRYNQFHIRRFEALLQTGKSPTSELLFDWGTTNCTVGDLVDLLIQNEFFAPASLLLPDAVPKTANTLPSKEAITVQQKQMPFCDKDRTLMTPVQNLEQSYMPPDSSSPENKSLEVSDTRFHSFSFYELKNVTNNFDERPISVGGNKMGEGGFGVVYKGYVNNTTVAVKKLAAMVDITTEELKQQFDQEIKVMAKCQHENLVELLGFSSDGDDLCLVYVYMPNGSLLDRLSCLDGTPPLSWHMRCKIAQGAANGINFLHENHHIHRDIKSANILLDEAFTAKISDFGLARASEKFAQTVMTSRIVGTTAYMAPEALRGEITPKSDIYSFGVVLLEIITGLPAVDEHREPQLLLDIKEEIEDEEKTIEDYIDKKMNDADSTSVEAMYSVASQCLHEKKNKRPDIKKVQQLLQEMTAS
On to B1, for which the binding entry in test [3] was “binds”; in test [4] it was “no binding”; in test [2], “binds”.
